Test results as given in the supplement of paper PMC12217912.
This is one part of the list. The full chains were built here from the parent and the listed change. Values near 0.05 are background.

B1: TEV protease; numbered along this chain (parent)
chain: MGESLFKGPRDYNPISSSICHLTNESDGHTTSLYGIGFGPFIITNKHLFRRNNGTLVVQSLHGVFKVKDTTTLQQHLVDGRDMIIIRMPKDFPPFPQKLKFREPQREERICLVTTNFQTKSMSSMVSDTSCTFPSGDGIFWKHWIQTKDGQCGSPLVSTRDGFIVGIHSASNFTNTNNYFTSVPKNFMELLTNQEAQQWVSGWRLNADSVLWGGHKVFMVKPEEPFQPVKEATQL

Variants of: B1
Assay: raw area under fraction-flipped curve 0-4 h after induction (AUC4h, not background-subtracted), DNA-recorder readout of cleavage of the substrate (dimensionless); higher = more cleavage of the substrate by the protease variant
Conditions: temperature: 34 °C; time window: 0-4 h after rhamnose induction
Procedure: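 In vivo DNA recorder in E. coli TOP10(DE3) ΔrhaA at 34 °C. Each TEVp single-site mutant (parent TEVp 0) is paired with a single-site variant of the 7-mer TEVs (canonical ENLYFQ|S). The substrate sits between flexible linkers in a Bxb1-sfGFP-TEVs-SsrA fusion, so cleavage stabilises Bxb1 and speeds flipping of a recombination array, read by NGS. The value is the raw area under the fraction-flipped curve over 0-4 h after rhamnose induction (AUC4h), with ≥20 reads per time point. It is not background-subtracted; inactive controls average about 0.047.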
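Further: Bxb1 expression induced with 0.2% (w/v) L-rhamnose at OD600 near 0.5, cultures sampled hourly, flipped fraction per protease–substrate barcode pair counted by paired-end Illumina sequencing.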

Variant	area with substrate ENAYFQS	area with substrate ENCYFQS	area with substrate ENDYFQS	area with substrate ENEYFQS	area with substrate ENGYFQS	area with substrate ENHYFQS	area with substrate ENNYFQS	area with substrate ENPYFQS	area with substrate ENQYFQS	area with substrate ENSYFQS	area with substrate ENTYFQS	area with substrate ENVYFQS	area with substrate ENYYFQS	area with substrate ENFYFQS	area with substrate ENIYFQS	area with substrate ENKYFQS	area with substrate ENMYFQS	area with substrate ENRYFQS	area with substrate ENWYFQS
L56Q	0.0351	0.0498	0.0257	0.0495	0.0597	0.0472	0.0095	0.0453	0.0416	0.0274	0.0538	0.0379	0.0566	–	–	–	–	–	–
L56W	0.0573	0.051	0.0613	0.0593	0.052	0.0523	0.0561	0.0542	0.062	0.0432	0.0616	0.0605	0.0526	0.0626	0.0559	0.0595	0.0574	0.0651	–
L56S	0.0378	–	0.0444	0.0508	–	0.0538	0.051	–	0.0554	0.0453	0.0442	0.0634	0.0456	–	0.053	0.0527	–	0.0702	–
L56Y	0.0586	0.0544	0.0439	0.0781	–	–	–	–	0.038	0.0619	0.0665	0.0433	0.0446	–	–	0.0574	–	–	–
T72S	0.0473	–	0.0442	–	–	–	0.0686	0.0457	0.0591	0.0646	–	–	–	0.0397	–	–	–	–	0.0555
T72H	0.0601	0.0739	0.0513	0.0598	0.0371	0.0592	0.0619	0.0605	0.0544	0.0555	0.0621	0.0664	0.0551	0.0613	–	0.0596	0.0689	–	0.0466
T72C	0.0607	0.0699	–	0.0577	–	–	–	–	–	0.0854	0.074	0.0816	0.0433	–	–	–	–	0.0596	–
T72G	0.0613	–	0.0633	0.0855	0.0779	0.0565	0.0659	–	–	0.0684	0.0678	0.0549	–	–	–	0.0568	–	–	–
T72R	0.0413	–	0.0576	0.0574	0.0709	0.0626	0.0513	0.0488	0.0686	0.0638	0.0666	0.0664	0.063	0.0585	–	0.0397	–	–	0.0479
T72V	0.0543	0.0578	0.0665	0.0613	–	–	0.0694	0.0534	0.0605	0.0597	0.0489	–	0.0876	0.0656	–	–	–	0.0491	0.0667
T72N	0.0558	0.0691	0.0639	0.0642	0.0653	–	0.0695	0.098	0.0746	0.0557	0.063	0.077	0.0448	0.0672	0.117	–	0.0472	0.0597	0.0781
Q75P	0.0663	0.0673	0.0552	0.0578	0.0755	0.0445	0.0594	0.0682	0.0598	0.0694	0.0575	0.0471	–	0.0551	0.0635	0.0514	0.0502	0.0586	0.0715
V64W	0.0365	0.0591	0.0784	0.0528	–	0.0635	0.0307	–	0.0621	0.0684	0.104	–	–	0.0589	–	–	–	–	–
V64K	0.062	0.0671	0.0562	0.0672	0.0521	0.0558	0.0638	0.0663	0.0578	0.0502	0.0609	0.0769	–	–	–	0.0638	0.103	0.0664	0.003
V64C	0.0528	0.0689	0.064	0.0744	0.0604	0.0527	0.0656	–	0.0565	0.0621	0.0659	–	–	–	0.0859	0.0632	–	0.0192	–
V64T	0.0334	0.0999	0.0245	0.0656	0.0706	–	0.0757	0.0524	0.0656	–	–	–	–	–	0.111	0.038	–	–	–
V64P	0.0622	0.0726	0.0653	0.0584	–	0.0618	0.0522	–	0.0599	0.0733	0.0556	0.0653	–	–	0.0825	0.048	0.0776	0.0643	0.0555
M88Q	0.0705	–	0.0602	–	–	0.0816	–	–	0.0528	0.0484	0.037	–	0.0685	–	–	–	–	0.0179	–
M88G	0.0492	0.0425	0.0415	0.0566	0.0672	0.0586	0.0369	0.0471	0.0471	0.0836	–	0.0874	–	0.0541	0.0776	–	0.0496	0.0488	0.0246
M88W	0.0512	0.0429	0.0604	0.0376	0.0474	–	0.0471	0.0652	0.0599	0.0526	0.0555	0.0595	0.0555	0.0357	0.0494	0.0341	–	–	–
G80T	0.0747	–	–	–	0.0496	0.0558	–	–	0.0648	0.0671	0.0593	0.0913	–	0.065	–	0.067	–	–	–
G80N	0.0603	0.07	0.0656	0.0634	0.0642	0.0584	0.0482	0.103	0.058	0.0603	0.0707	–	0.0611	0.0488	0.125	0.0698	0.076	0.0494	–
G80C	0.0493	0.0824	0.0559	0.0507	0.0538	–	0.0832	–	0.0588	0.046	0.0186	0.0676	0.054	0.0073	0.126	–	–	0.0602	–
G80K	0.0639	–	0.0566	0.0591	–	0.0514	0.0553	0.0402	0.0892	0.0609	0.0595	–	0.0588	–	0.0913	0.0543	–	0.0591	0.0522
L61G	0.0632	0.0687	0.0722	0.0747	0.0617	0.0636	0.0644	0.0802	0.0634	0.059	0.0638	0.0817	–	–	0.0845	0.0788	0.0743	0.0583	–
R81T	0.0533	0.0603	0.0619	0.0624	–	0.0514	0.0637	0.0534	0.063	0.0647	–	0.0579	–	0.0689	–	–	0.0671	0.0641	–
